Measurements reported in the supplement of paper PMC7826260.
This is one part of the list. One pool of 16,384 single-stranded DNAs met each Rep nickase domain in vitro (3 µM enzyme, 1 h, 37 °C); shown is the middle of each 90-letter strand. Uncut reads are compared with the no-enzyme pool on a log2 scale; uncut sequences lie near 0, cut ones below; no hit call is given. Because reads are shares of a total, they shift together; values above 0 arise when much of the pool is cut.

What was measured:
Assay in all cases: uncleaved DNA left, log2 of reads against the no-enzyme library (log2 ratio); higher = less cleavage (more negative = more Rep cleavage of the k-mer); sequences stand for … in CTCGTCCG…ACCGGAGA
[1] = system: T1, Rep nickase domain of Muscovy duck circovirus
T1 sequence (Rep 1-111, printed without the tag): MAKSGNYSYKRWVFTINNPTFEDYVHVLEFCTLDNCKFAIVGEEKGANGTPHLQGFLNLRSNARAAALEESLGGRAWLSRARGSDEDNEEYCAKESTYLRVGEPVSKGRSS
Procedure: (§1)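 A pool of 90-nt single-stranded DNAs with seven random bases just before the constant AC of the nick site (name = the seven bases) was cut by 3 µM recombinant His6-SUMO-tagged Rep nickase domain (300 nM DNA, 50 mM HEPES pH 8.0, 50 mM NaCl, 1 mM MnCl2, 1 h, 37 °C, three replicates). Uncut DNA was amplified and sequenced.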

[2] = system: T2, Rep nickase domain of banana bunchy top virus
T2 sequence (Rep 1-94, printed without the tag): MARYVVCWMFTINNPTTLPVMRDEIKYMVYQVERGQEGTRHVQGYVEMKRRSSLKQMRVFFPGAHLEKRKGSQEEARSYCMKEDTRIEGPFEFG
Procedure: as §1

[3] = system: T3, Rep nickase domain of cabbage leaf curl virus
T3 sequence (Rep 1-116, printed without the tag): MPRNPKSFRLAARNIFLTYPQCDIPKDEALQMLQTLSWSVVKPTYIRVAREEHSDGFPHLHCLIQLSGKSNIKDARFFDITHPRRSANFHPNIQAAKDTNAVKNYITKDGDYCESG
Procedure: as §1

[4] = system: T4, Rep nickase domain of chickpea chlorotic dwarf virus
T4 sequence (Rep 1-124, printed without the tag): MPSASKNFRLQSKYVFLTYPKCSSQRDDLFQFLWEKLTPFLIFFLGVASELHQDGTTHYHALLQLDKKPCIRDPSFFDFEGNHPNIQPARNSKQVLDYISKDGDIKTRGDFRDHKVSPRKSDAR
Procedure: as §1

[5] = system: T5, Rep nickase domain of faba bean necrotic yellows virus
T5 sequence (Rep 1-98, printed without the tag): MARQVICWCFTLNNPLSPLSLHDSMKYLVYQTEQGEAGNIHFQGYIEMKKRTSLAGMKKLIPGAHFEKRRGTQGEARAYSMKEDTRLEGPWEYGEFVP
Procedure: as §1

[6] = system: T6, Rep nickase domain of maize striate mosaic virus
T6 sequence (Rep 1-117, printed without the tag): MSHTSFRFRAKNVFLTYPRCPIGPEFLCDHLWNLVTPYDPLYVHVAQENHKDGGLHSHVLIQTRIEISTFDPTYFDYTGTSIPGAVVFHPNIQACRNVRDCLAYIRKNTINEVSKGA
Procedure: as §1

[7] = system: T7, Rep nickase domain of porcine circovirus 2
T7 sequence (Rep 2-116, printed without the tag): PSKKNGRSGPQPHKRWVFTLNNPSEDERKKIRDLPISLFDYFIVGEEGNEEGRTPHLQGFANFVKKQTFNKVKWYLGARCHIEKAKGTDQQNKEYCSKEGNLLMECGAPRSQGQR
Procedure: as §1

[8] = system: T8, Rep nickase domain of tomato golden mosaic virus
T8 sequence (Rep 1-124, printed without the tag): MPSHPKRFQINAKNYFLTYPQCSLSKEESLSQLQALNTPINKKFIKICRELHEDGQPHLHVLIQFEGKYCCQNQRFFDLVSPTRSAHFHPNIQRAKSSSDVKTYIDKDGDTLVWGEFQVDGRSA
Procedure: as §1

[9] = system: T9, Rep nickase domain of tomato yellow leaf curl virus
T9 sequence (Rep 1-136, printed without the tag): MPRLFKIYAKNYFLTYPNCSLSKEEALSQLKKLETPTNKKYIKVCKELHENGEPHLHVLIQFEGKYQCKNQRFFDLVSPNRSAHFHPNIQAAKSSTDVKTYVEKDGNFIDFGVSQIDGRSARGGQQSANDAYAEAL
Procedure: as §1

[10] = system: T10, Rep nickase domain of wheat dwarf virus
T10 sequence (Rep 1-137, printed without the tag): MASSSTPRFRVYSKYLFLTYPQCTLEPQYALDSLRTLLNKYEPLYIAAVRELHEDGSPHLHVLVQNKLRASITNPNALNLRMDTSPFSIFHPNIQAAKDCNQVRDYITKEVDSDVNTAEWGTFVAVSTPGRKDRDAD
Procedure: as §1

Sequence | uncleaved DNA left (log2) [1] | uncleaved DNA left (log2) [2] | uncleaved DNA left (log2) [3] | uncleaved DNA left (log2) [4] | uncleaved DNA left (log2) [5] | uncleaved DNA left (log2) [6] | uncleaved DNA left (log2) [7] | uncleaved DNA left (log2) [8] | uncleaved DNA left (log2) [9] | uncleaved DNA left (log2) [10]
TAAGAGT | 0.0467 | -0.118 | -2.16 | -2.12 | 0.0343 | -0.0707 | -0.086 | -0.223 | -0.105 | -0.491
TTAGCCT | -0.179 | -0.153 | -0.0891 | -2.11 | 0.0398 | -0.678 | -0.223 | -0.195 | -0.0408 | -0.175
ACAATGC | 0.0202 | 0.133 | -0.57 | -0.237 | 0.0759 | -1.1 | 0.179 | 0.0255 | 0.101 | -0.0819
GGGCTGA | 0.153 | 0.212 | 0.851 | 1.96 | 0.0681 | 2.31 | 0.282 | 0.122 | 0.0456 | 0.141
ACCCTAT | 0.142 | 0.0134 | -0.0485 | -0.775 | 0.137 | -0.242 | 0.0234 | 0.0252 | -0.0832 | 0.0998
AACAAAC | -0.0271 | 0.0135 | -0.16 | -0.622 | 0.0357 | -0.879 | 0.00881 | -0.0333 | -0.0502 | -0.038
GTGTCGG | 0.0316 | -0.0104 | 0.398 | 1.2 | 0.0339 | 1.65 | 0.0471 | 0.131 | -0.0106 | 0.0279
GGAAGCT | 0.192 | 0.144 | 0.514 | 1.11 | 0.139 | 1.38 | 0.201 | 0.0383 | 0.165 | 0.209
CTTCGAC | -0.0162 | -0.0779 | -0.0204 | -0.383 | -0.111 | -0.751 | 0.0304 | 0.0363 | -0.0588 | -0.0513
ACACTGA | 0.00301 | -0.0116 | -0.167 | -0.207 | 0.0337 | -0.541 | 0.106 | -0.0551 | -0.083 | 0.0818
GTGTGGG | -0.0207 | -0.185 | -0.278 | -0.18 | -0.149 | -0.412 | 0.0106 | -0.0138 | -0.0469 | -0.181
CGGATAT | -0.0283 | -0.0144 | 0.719 | 1.86 | 0.0392 | 2.07 | 0.177 | -0.00704 | -0.00635 | 0.0868
CGGAGCG | -0.011 | -0.0261 | -0.751 | -0.658 | -0.0609 | -1.11 | 0.142 | -0.0538 | 0.0575 | -0.179
CGCCTAC | -0.027 | -0.0046 | -0.194 | -1.35 | -0.023 | -0.461 | -0.16 | -0.138 | 0.00431 | 0.0492
CAGCTTG | -0.0765 | 0.0138 | 0.466 | 1.54 | -0.016 | 1.54 | 0.0833 | 0.155 | 0.0149 | 0.0401
GACCCTA | -0.00296 | 0.00792 | 0.628 | 0.749 | 0.00586 | 1.68 | -0.0269 | 0.0122 | 0.0204 | 0.107
ATGTAGC | 0.0505 | -0.0351 | -0.503 | -0.59 | 0.0209 | -1.07 | 0.181 | 0.185 | 0.158 | -0.0882
TAGTAGG | 0.177 | 0.0872 | 0.363 | 0.88 | 0.128 | 0.855 | -0.113 | 0.199 | -0.00793 | 0.167
GACAGAT | 0.129 | 0.131 | 0.518 | 1.06 | 0.0286 | 1.48 | 0.168 | 0.0598 | 0.0858 | 0.205
TGTTGAG | 0.147 | -0.00675 | -0.858 | 0.0343 | 0.0446 | -0.936 | 0.224 | 0.00584 | 0.182 | -0.121
GTGGTTC | -0.0939 | -0.0546 | 0.327 | 0.881 | 0.0141 | 1.93 | 0.15 | -0.0473 | 0.0376 | 0.093
CAAGGAT | 0.162 | -0.0487 | 0.23 | 1.6 | 0.00776 | 1.84 | 0.194 | -0.14 | -0.188 | 0.00421
AGCACCA | -0.234 | -0.118 | 0.052 | 0.0147 | -0.104 | 0.763 | -0.272 | -0.0208 | -0.14 | -0.0516
CCAAGAG | -0.0494 | -0.144 | -0.51 | -0.32 | -0.0962 | -1.06 | 0.105 | -0.111 | 0.0157 | -0.115
ACAGCTC | 0.0301 | 0.0231 | -0.257 | -0.453 | 0.114 | -0.612 | 0.213 | 0.145 | 0.0545 | -0.00635
TACTTGC | -0.143 | -0.0443 | -0.873 | -0.662 | -0.0744 | -1.21 | -0.131 | -0.285 | -0.131 | -0.257
AGTGGGG | 0.269 | 0.0864 | 0.45 | 0.631 | 0.155 | 0.813 | 0.292 | 0.224 | 0.0755 | 0.141
CCGCTAG | 0.172 | 0.143 | -0.627 | -0.208 | 0.0642 | -0.944 | 0.136 | 0.0477 | 0.164 | 0.00237
CCATAAG | 0.0103 | 0.0656 | -0.105 | 1.25 | 0.213 | 0.562 | 0.258 | 0.0145 | 0.276 | 0.052
CTAAGAC | -0.00113 | -0.102 | -2.13 | -2.64 | -0.078 | -0.788 | 0.114 | -0.22 | -0.0765 | -0.335
